# Results taken from the supplement of paper PMC3334620.
# The full ranking holds about 33,000 sequences; the median of “E-score (-0.5 to 0.5)” is about -0.017, and the highest 2% start at about 0.3. The list shows a part of the results.
# Molecular target: T1, Sut1 (UniProt P53032)
# T1 sequence: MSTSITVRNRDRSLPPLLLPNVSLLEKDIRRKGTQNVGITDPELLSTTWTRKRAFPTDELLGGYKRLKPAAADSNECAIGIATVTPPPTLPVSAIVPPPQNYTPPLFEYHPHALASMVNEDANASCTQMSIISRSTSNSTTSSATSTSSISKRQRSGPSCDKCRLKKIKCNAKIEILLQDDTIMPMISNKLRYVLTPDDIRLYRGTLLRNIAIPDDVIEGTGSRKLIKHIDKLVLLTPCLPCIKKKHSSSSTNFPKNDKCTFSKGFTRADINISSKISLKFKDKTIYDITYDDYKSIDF
# Experiment: PBM E-score (8-mer binding enrichment) (E-score (-0.5 to 0.5)); higher = stronger / more preferred TF binding; most listed sequences are background and not binding sites
# Details: protein concentration: 200 nM; construct: GST-full length
# Procedure, shortened: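 GST-tagged yeast TFs (full-length or DNA-binding domain) were made by PURExpress in vitro transcription/translation and applied at about 100-200 nM to universal all-10-mer Agilent arrays. The arrays were made double-stranded by primer extension, on fresh or once-stripped slides. Bound protein was detected with fluorescent anti-GST, and scans were normalised with masliner. Each ungapped eight-base word, pooled with its reverse complement, received an E-score (modified Wilcoxon-Mann-Whitney statistic) from the Universal PBM Analysis Suite.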
row,Sequence,PBM E-score
1,ATTAAACC,0.235
2,ATTCTTGG,0.0534
3,AATCTTAT,0.126
4,AACATGTA,0.224
5,TCTACAAA,0.0443
6,ACTTGAGA,-0.0637
7,AATGTAGT,0.165
8,AGGTGGCG,-0.24
9,ACCTTGGG,-0.109
10,TGTGTGAA,-0.105
11,ATCAATTA,0.31
12,AGCAATAC,0.139
13,ACTTTCCG,0.258
14,ATGTGTCG,-0.0171
15,CAGTTCGG,0.148
16,CTAAGATA,0.115
17,CACCTCTC,-0.222
18,CGTGAGCC,-0.151
19,GAGCCGGC,0.125
20,TCATGAAA,-0.0244
21,AGTTTATG,0.0377
22,GGGGTGGA,-0.11

row,Sequence,PBM E-score
1,AACGAAAG,0.00267
2,CACAAATC,0.117
3,CATTGGTC,-0.017
4,AAAGTTCC,0.0675
5,GTTTTCGA,0.113
6,AAGTCCCA,-0.325
7,AATATTCA,0.219
8,CAACAGTA,-0.0294
9,CTGAGTGA,0.168
10,AGTAGATC,0.0396
11,CACTGCTG,-0.372
12,CATTTGAG,0.0705
13,ATTCCCCG,0.0831
14,AATTTCAT,0.196
15,CGGGACCA,-0.193
16,GGGGCTCA,-0.269
17,ACCGACAA,0.0505
18,AAAAAGCG,0.25
19,GCTGTCGA,-0.15
20,AAAGAAAT,0.246
21,CCCTATCC,-0.0823
22,CACTTACA,0.202

row,Sequence,PBM E-score
1,GTCGGAAA,0.355
2,GTGTACTA,0.0759
3,GTAAGGTA,0.218
4,ATTCTACG,0.0932
5,GCGCCGCC,-0.155
6,CTCGGGTA,-0.125
7,ACAGGTCA,-0.234
8,AAGACCTA,-0.0606
9,ACAGCGCC,-0.0715
10,AATACGGG,0.00153
11,CGCCCGTC,-0.116
12,ATGAGCCG,-0.135
13,GAGTTCCC,-0.154
14,AGAGTATA,0.00921
15,ACCTTCTG,-0.00802
16,ATGCCCTG,-0.331
17,CAAGCTTG,0.0115
18,CAGTTCTC,-0.0145
19,GATGCGTA,0.0586
20,AGAGGAAT,-0.177
21,ACATAATC,0.187
22,CTATCTCA,0.156

row,Sequence,PBM E-score
1,AGACTTTC,0.0853
2,AAACCCCC,-0.346
3,GTGCGCCA,-0.267
4,TGGCTAAA,0.143
5,GTAAAAAA,0.288
6,TGTCATAA,0.153
7,GCGACTCC,0.119
8,ATTCCTAA,0.12
9,CTCTGCAA,-0.0084
10,CGACGTTC,-0.246
11,AAACGAAG,0.132
12,GATCAAAA,0.0728
13,ATAAGGCC,-0.0239
14,AGACAGAT,0.137
15,AGATGGGA,-0.12
16,AGTCGATA,0.117
17,AGCAATGC,0.0322
18,AACTCTTG,-0.135
19,AACACGGC,-0.107
20,AGTCTGGG,-0.371
